Some of these densities may be calculated back from excess volumes.
Assay: xn = mol fraction of the nth substance listed
Details: 298.15 K, 101 kPa

CCCC[NH3+].O=[N+]([O-])[O-] + CCO
Details	mass density [kg/m3]
x2 = 0.2091	1073.9
x2 = 0.3412	1048.9
x2 = 0.4482	1024.8
x2 = 0.5775	989.8
x2 = 0.6659	961.5
x2 = 0.7526	927.4
x2 = 0.7925	909.9
x2 = 0.8384	887.8
x2 = 0.8976	855.8

CC[NH3+].O=[N+]([O-])[O-] + CCO
Details	mass density [kg/m3]
x2 = 0.1991	1154.9
x2 = 0.3298	1115.2
x2 = 0.755	939
x2 = 0.7879	921.6
x2 = 0.839	892.9
x2 = 0.9059	851.7

CCCC[NH3+].O=[N+]([O-])[O-] + O
Details	mass density [kg/m3]
x2 = 0.2292	1103.7
x2 = 0.5973	1095.4
x2 = 0.6854	1090.7
x2 = 0.7644	1084.1
x2 = 0.8307	1075.5
x2 = 0.9028	1059.1

CC[NH3+].O=[N+]([O-])[O-] + O
Details	mass density [kg/m3]
x2 = 0.0594	1206.3
x2 = 0.12	1204.5
x2 = 0.2565	1199
x2 = 0.6606	1163
x2 = 0.7762	1138.1
x2 = 0.8213	1123.6
x2 = 0.9059	1083.7

— a compilation of properties of binary mixtures (doi:10.1016/j.molliq.2016.07.107)
